# Data from the supplement of paper PMC8728848.
# The other results are listed elsewhere or left out.
# Assays:
# Assay in all cases: glycan array binding signal (z-score within array); higher = stronger binding
# Conditions in all cases: glycan notation: IUPAC condensed, linker removed
# [1] = molecular target: Fuc(a1-2)Gal6S(b1-3)GlcNAc6S
# Outline: (§1)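 Arrays were curated from the Consortium for Functional Glycomics database, 3228 in total, and kept only where the protein sequence was available. Binding is expressed as a within-array Z-score. This score was averaged across arrays of the same protein sequence at different concentrations or buffers and across linkers, and negative values can be read as non-binding.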
# [2] = molecular target: Fuc(a1-2)Gal6S(b1-4)Glc
# Outline: as §1
# [3] = molecular target: Fuc(a1-2)Gal6S(b1-4)Glc6S
# Outline: as §1
# [4] = molecular target: Fuc(a1-2)[Gal(a1-3)]Gal
# Outline: as §1
# [5] = molecular target: Fuc(a1-2)[Gal(a1-3)]Gal(b1-3)GalNAc
# Outline: as §1
# [6] = molecular target: Fuc(a1-2)[Gal(a1-3)]Gal(b1-3)GalNAc(b1-3)Gal(a1-4)Gal(b1-4)Glc
# Outline: as §1
# [7] = molecular target: Fuc(a1-2)[Gal(a1-3)]Gal(b1-3)GlcNAc
# Outline: as §1
# [8] = molecular target: Fuc(a1-2)[Gal(a1-3)]Gal(b1-3)GlcNAc(b1-2)Man(a1-3)[Fuc(a1-2)[Gal(a1-3)]Gal(b1-3)GlcNAc(b1-2)Man(a1-6)]Man(b1-4)GlcNAc(b1-4)GlcNAc
# Outline: as §1
# [9] = molecular target: Fuc(a1-2)[Gal(a1-3)]Gal(b1-3)GlcNAc(b1-2)Man(a1-3)[Fuc(a1-2)[Gal(a1-3)]Gal(b1-3)GlcNAc(b1-2)Man(a1-6)]Man(b1-4)GlcNAc(b1-4)[Fuc(a1-6)]GlcNAc
# Outline: as §1
# [10] = molecular target: Fuc(a1-2)[Gal(a1-3)]Gal(b1-3)GlcNAc(b1-3)GalNAc
# Outline: as §1
# [11] = molecular target: Fuc(a1-2)[Gal(a1-3)]Gal(b1-3)GlcNAc(b1-6)GalNAc
# Outline: as §1
# [12] = molecular target: Fuc(a1-2)[Gal(a1-3)]Gal(b1-4)Glc
# Outline: as §1
# [13] = molecular target: Fuc(a1-2)[Gal(a1-3)]Gal(b1-4)GlcNAc
# Outline: as §1
# [14] = molecular target: Fuc(a1-2)[Gal(a1-3)]Gal(b1-4)GlcNAc(b1-2)Man
# Outline: as §1
# [15] = molecular target: Fuc(a1-2)[Gal(a1-3)]Gal(b1-4)GlcNAc(b1-2)Man(a1-3)[Fuc(a1-2)[Gal(a1-3)]Gal(b1-4)GlcNAc(b1-2)Man(a1-6)]Man(b1-4)GlcNAc(b1-4)GlcNAc
# Outline: as §1
# [16] = molecular target: Fuc(a1-2)[Gal(a1-3)]Gal(b1-4)GlcNAc(b1-2)Man(a1-3)[Fuc(a1-2)[Gal(a1-3)]Gal(b1-4)GlcNAc(b1-2)Man(a1-6)]Man(b1-4)GlcNAc(b1-4)[Fuc(a1-6)]GlcNAc
# Outline: as §1
# [17] = molecular target: Fuc(a1-2)[Gal(a1-3)]Gal(b1-4)GlcNAc(b1-3)GalNAc
# Outline: as §1
# [18] = molecular target: Fuc(a1-2)[Gal(a1-3)]Gal(b1-4)GlcNAc(b1-3)[Fuc(a1-2)[Gal(a1-3)]Gal(b1-4)GlcNAc(b1-6)]GalNAc
# Outline: as §1
# [19] = molecular target: Fuc(a1-2)[Gal(a1-3)]Gal(b1-4)GlcNAc(b1-6)GalNAc
# Outline: as §1
# [20] = molecular target: Fuc(a1-2)[Gal(a1-3)]Gal(b1-4)[Fuc(a1-3)]Glc
# Outline: as §1
# [21] = molecular target: Fuc(a1-2)[Gal(a1-3)]Gal(b1-4)[Fuc(a1-3)]GlcNAc
# Outline: as §1
# [22] = molecular target: Fuc(a1-2)[Gal(a1-3)]Gal(b1-4)[Fuc(a1-3)]GlcNAc(b1-3)GalNAc
# Outline: as §1
# [23] = molecular target: Fuc(a1-2)[Gal(a1-4)]Gal(b1-4)GlcNAc
# Outline: as §1
# [24] = molecular target: Fuc(a1-2)[GalNAc(a1-3)]Gal
# Outline: as §1
# [25] = molecular target: Fuc(a1-2)[GalNAc(a1-3)]Gal(b1-3)GalNAc(a1-3)[Fuc(a1-2)]Gal(b1-4)GlcNAc
# Outline: as §1
# [26] = molecular target: Fuc(a1-2)[GalNAc(a1-3)]Gal(b1-3)GalNAc(b1-3)Gal(a1-4)Gal(b1-4)Glc
# Outline: as §1
# [27] = molecular target: Fuc(a1-2)[GalNAc(a1-3)]Gal(b1-3)GlcNAc
# Outline: as §1
# [28] = molecular target: Fuc(a1-2)[GalNAc(a1-3)]Gal(b1-3)GlcNAc(b1-2)Man(a1-3)[Fuc(a1-2)[GalNAc(a1-3)]Gal(b1-3)GlcNAc(b1-2)Man(a1-6)]Man(b1-4)GlcNAc(b1-4)GlcNAc
# Outline: as §1
# [29] = molecular target: Fuc(a1-2)[GalNAc(a1-3)]Gal(b1-3)GlcNAc(b1-2)Man(a1-3)[Fuc(a1-2)[GalNAc(a1-3)]Gal(b1-3)GlcNAc(b1-2)Man(a1-6)]Man(b1-4)GlcNAc(b1-4)[Fuc(a1-6)]GlcNAc
# Outline: as §1
# [30] = molecular target: Fuc(a1-2)[GalNAc(a1-3)]Gal(b1-3)GlcNAc(b1-3)GalNAc
# Outline: as §1
# [31] = molecular target: Fuc(a1-2)[GalNAc(a1-3)]Gal(b1-3)GlcNAc(b1-6)GalNAc
# Outline: as §1
# [32] = molecular target: Fuc(a1-2)[GalNAc(a1-3)]Gal(b1-4)Glc
# Outline: as §1
# [33] = molecular target: Fuc(a1-2)[GalNAc(a1-3)]Gal(b1-4)GlcNAc
# Outline: as §1
# [34] = molecular target: Fuc(a1-2)[GalNAc(a1-3)]Gal(b1-4)GlcNAc(b1-2)Man
# Outline: as §1
# [35] = molecular target: Fuc(a1-2)[GalNAc(a1-3)]Gal(b1-4)GlcNAc(b1-2)Man(a1-3)[Fuc(a1-2)[GalNAc(a1-3)]Gal(b1-4)GlcNAc(b1-2)Man(a1-6)]Man(b1-4)GlcNAc(b1-4)GlcNAc
# Outline: as §1
# [36] = molecular target: Fuc(a1-2)[GalNAc(a1-3)]Gal(b1-4)GlcNAc(b1-2)Man(a1-3)[Fuc(a1-2)[GalNAc(a1-3)]Gal(b1-4)GlcNAc(b1-2)Man(a1-6)]Man(b1-4)GlcNAc(b1-4)[Fuc(a1-6)]GlcNAc
# Outline: as §1
# [37] = molecular target: Fuc(a1-2)[GalNAc(a1-3)]Gal(b1-4)GlcNAc(b1-3)Gal(b1-4)GlcNAc
# Outline: as §1
# [38] = molecular target: Fuc(a1-2)[GalNAc(a1-3)]Gal(b1-4)GlcNAc(b1-3)Gal(b1-4)GlcNAc(b1-3)Gal(b1-4)GlcNAc
# Outline: as §1
# [39] = molecular target: Fuc(a1-2)[GalNAc(a1-3)]Gal(b1-4)GlcNAc(b1-3)GalNAc
# Outline: as §1
# [40] = molecular target: Fuc(a1-2)[GalNAc(a1-3)]Gal(b1-4)GlcNAc(b1-3)[Fuc(a1-2)[GalNAc(a1-3)]Gal(b1-4)GlcNAc(b1-6)]GalNAc
# Outline: as §1
# [41] = molecular target: Fuc(a1-2)[GalNAc(a1-3)]Gal(b1-4)GlcNAc(b1-6)GalNAc
# Outline: as §1
# [42] = molecular target: Fuc(a1-2)[GalNAc(a1-3)]Gal(b1-4)[Fuc(a1-3)]GlcNAc
# Outline: as §1
# [43] = molecular target: Fuc(a1-2)[GalNAc(a1-3)]Gal(b1-4)[Fuc(a1-3)]GlcNAc(b1-3)GalNAc
# Outline: as §1
# [44] = molecular target: Fuc(a1-2)[GalNAc(a1-4)]Gal(b1-4)GlcNAc
# Outline: as §1
# [45] = molecular target: Fuc(a1-2)[GalNAc(b1-3)]Gal
# Outline: as §1
binder,measurement,setting,value
PX14343H-pdi-506-26-506 (Parabacteroides distasonis) (protein) QPTGTMTTDSKLTSKESALALTNSAYLKNTVFNKMTPGWGCNTILLLEYMTGKATSENSQSNYKDFQDLLVSDRSLYIEDWWQDCYAGIANCNLALQKLGEFENLDASLVNGYMAEVKFMRALYYFYLVRIFGDVPKITTVQSELGELQVSRAPVKEIYDEIIIPDLLEAEQSDLAFSDHTGRVSMGAVKALLADVYLTYAGYPLQGGKSYYAESAKRSLEVIKSNEYTLFTDYESLRLPSQNNKGEFIYQVQFSLNKRHNESVRIFLPSRSGISAYDLEYGSLIPTKEFVESFEKGDKRTEEKQYFFTNYKGHPSKFSPGAAELEFMDLNGYYIYKFFDQVAVDNTAKSDLNWSVYRYTDVLLMYAEAQVNADGTPNQQSIDIVNQIRGRAGLAPFKQTNASAFLEEVWDQRYFDLCYENKMWFDMLRTRKIRDDKSGEYVDFIGYKTNWGKVYTETQLLFPIPLSERQANPNLTQNQGY,glycan array binding signal (z-score),[1],-0.221
same,glycan array binding signal (z-score),[2],-0.402
same,glycan array binding signal (z-score),[3],-0.097
same,glycan array binding signal (z-score),[4],-0.437
same,glycan array binding signal (z-score),[5],-0.325
same,glycan array binding signal (z-score),[6],-0.484
same,glycan array binding signal (z-score),[7],-0.403
same,glycan array binding signal (z-score),[8],-0.252
same,glycan array binding signal (z-score),[9],-0.385
same,glycan array binding signal (z-score),[10],-0.35
same,glycan array binding signal (z-score),[11],-0.255
same,glycan array binding signal (z-score),[12],-0.064
same,glycan array binding signal (z-score),[13],-0.367
same,glycan array binding signal (z-score),[14],-0.394
same,glycan array binding signal (z-score),[15],1.1
same,glycan array binding signal (z-score),[16],0.417
same,glycan array binding signal (z-score),[17],0.013
same,glycan array binding signal (z-score),[18],-0.177
same,glycan array binding signal (z-score),[19],-0.381
same,glycan array binding signal (z-score),[20],-0.009
same,glycan array binding signal (z-score),[21],0.01
same,glycan array binding signal (z-score),[22],1
same,glycan array binding signal (z-score),[23],-0.086
same,glycan array binding signal (z-score),[24],-0.165
same,glycan array binding signal (z-score),[25],0.211
same,glycan array binding signal (z-score),[26],-0.327
same,glycan array binding signal (z-score),[27],-0.248
same,glycan array binding signal (z-score),[28],-0.219
same,glycan array binding signal (z-score),[29],-0.391
same,glycan array binding signal (z-score),[30],-0.257
same,glycan array binding signal (z-score),[31],-0.137
same,glycan array binding signal (z-score),[32],-0.474
same,glycan array binding signal (z-score),[33],-0.526
same,glycan array binding signal (z-score),[34],-0.523
same,glycan array binding signal (z-score),[35],4.7
same,glycan array binding signal (z-score),[36],-0.287
same,glycan array binding signal (z-score),[37],-0.435
same,glycan array binding signal (z-score),[38],-0.352
same,glycan array binding signal (z-score),[39],-0.4
same,glycan array binding signal (z-score),[40],0
same,glycan array binding signal (z-score),[41],-0.405
same,glycan array binding signal (z-score),[42],-0.269
same,glycan array binding signal (z-score),[43],0.196
same,glycan array binding signal (z-score),[44],1.09
same,glycan array binding signal (z-score),[45],1.11
